Test results reported in PubChem BioAssay AID588855 (National Center for Advancing Translational Sciences (NCATS), 2011).
The whole screen tested about 410,000 compounds, of which about 5,000 (1.2%) were called active. Inconclusive results, whose numbers are uncertain, are shown with a selection of clear calls. Calls come from the whole dose curve; as a rule, active = well fitted inhibition curve with a large enough effect; inconclusive = small, poorly fitted or top-dose-only effect; inactive = no such curve, though single readings can be large or run the other way. Potencies beside an inconclusive call are fits to weak or partial responses and may not hold up.

test: qHTS for Inhibitors of TGF-b; settings: HepG2 CAGA-GFP TGF-b/SMAD3 reporter, GFP fluorescence, 18 h, TGF-beta stimulated, 500 pg/mL final; series mostly up to 46.1 µM; activity, negative = inhibition: at the top concentration; note: nearly all actives have a fitted effect of over 65% in size
How it was run: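 Per well, imaged GFP fluorescence of HEPG2 CAGA-GFP cells gives the signal; cells get compound, then TGF-beta (500 pg/mL final), 18 h at 37 degrees C; %Activity versus -TGF-beta and +DMSO controls.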
% is set by controls: 0 for no effect and ±100 for the full control effect; potency is the fitted concentration of half-maximal effect; tags give direction and shape of the fitted curve.

Row | Compound | activity, negative = inhibition | Potency
1 | COc1ccc(NC(=O)CN(C)CC(=O)Nc2sc3c(c2C(N)=O)CCC3)cc1 | inactive: -27.2% | 
2 | Cc1cc(NC(=O)c2cc(-c3ccc(Cl)cc3)on2)n(-c2ccccc2)n1 | inactive: -7.37% | 
3 | CCN(CC(=O)Nc1ccc(NC(C)=O)cc1)C(=O)c1ccc(NC2CC2)c([N+](=O)[O-])c1 |  | inconclusive: 35.5 µM [inhibitor, single point]
4 | O=C(CNCc1ccccn1)Nc1cc(S(=O)(=O)N2CCCCC2)ccc1Cl |  | inconclusive: 25.1 µM [inhibitor, single point]
5 | CN(C)CCN1CCN(C2CN(CCc3ccccc3)S(=O)(=O)C2)CC1 (stereo not drawn) |  | inconclusive: 3.16 µM [inhibitor, partial curve, poor fit]
6 | COC(=O)c1sccc1NC(=O)c1c(C)c(-c2cccc(Cl)c2)nc2ccccc12 |  | inconclusive: 0.562 µM [inhibitor, full curve, poor fit]
7 | COc1cc(OC)c(NC(=O)c2cc3c(=O)oc4ccc(C)cc4c3s2)cc1Cl | inactive: -9.46% | 
8 | Cc1cccc(NC(=O)c2cn(-c3ccccc3)nc2-c2ccccc2)c1 |  | inconclusive: 0.631 µM [inhibitor, full curve, poor fit]
9 | COc1ccc(C)cc1Nc1n[n+](-c2ccccc2)c(-c2cc(OC)c(OC)cc2Br)s1 |  | inconclusive: 17.8 µM [inhibitor, single point]
10 | Cc1cc(C)n(-c2ccc(C(=O)Nc3ccc(C)c(S(=O)(=O)N4CCOCC4)c3)cc2)n1 |  | inconclusive: 35.5 µM [inhibitor, single point]
11 | CC(C)c1ccc(CNc2ccc3c(c2)ncn3C)cc1 |  | inconclusive: 31.6 µM [inhibitor, single point]
12 | CCC(C)c1ccccc1NC(=O)c1cc2cccc([N+](=O)[O-])c2[nH]1 (stereo not drawn) |  | inconclusive: 35.5 µM [inhibitor, single point]
13 | Cc1ccc(/C=C2/NC(=O)N(Cc3ccccc3F)C2=O)o1 |  | inconclusive: 5.01 µM [inhibitor, single point]
14 | C=C(C)c1cccc(C(C)(C)NC(=O)Nc2nnc(C(C)C)s2)c1 |  | active: 8.91 µM
15 | Cc1ccc(C(=O)N2CCC3CC2c2cc(-c4ccc5c(c4)OCO5)ccc23)cc1 (stereo not drawn) |  | inconclusive: 35.5 µM [inhibitor, single point]
16 | COc1ccc(OC)c(C(C(=O)NC2CCCCC2)N(C(=O)c2snc(C(N)=O)c2N)c2ccccc2OC)c1 (stereo not drawn) | inactive: 10% | 
17 | O=C1C2C3C=CC(C4CC34)C2C(=O)N1/N=C/c1ccc(-c2ccc(F)cc2[N+](=O)[O-])o1 (stereo not drawn) | inactive: 2.03% | 
18 | CC(C)(C)N1CCC1CN (stereo not drawn) |  | inconclusive: 2 µM [inhibitor, partial curve, poor fit]
